# Data: the supplement of paper PMC4166925
# ± gives the standard deviation of the averaged measurements. The full ranking holds about 33,000 sequences; the median of “E-score (dimensionless, -0.5 to 0.5)” is about -0.046, and the highest 2% start at about 0.36. The list shows a part of the results.
# Test system: T1, SpTbr T-box DNA-binding domain (GST fusion)
# T1 sequence: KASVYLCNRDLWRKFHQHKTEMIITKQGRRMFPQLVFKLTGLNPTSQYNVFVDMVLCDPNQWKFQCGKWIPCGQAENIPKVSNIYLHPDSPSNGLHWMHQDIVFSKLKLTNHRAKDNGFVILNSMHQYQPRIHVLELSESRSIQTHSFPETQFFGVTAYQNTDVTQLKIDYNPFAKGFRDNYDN
# Assay: PBM E-score of 8-mer (E-score (dimensionless, -0.5 to 0.5)); Tbr is Tbrain of the sea star Patiria miniata (Pm) or the sea urchin Strongylocentrotus purpuratus (Sp); higher = stronger binding preference; most listed sequences are background and not binding sites
# Conditions: the construct has about 5 more residues each side
# Summary of the method: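 Expression of GST-fused Tbr T-box DNA-binding domains, each holding the full T-box plus roughly five flanking residues, was carried out in BL21 E. coli at 20 °C, with purification by glutathione affinity chromatography. Universal Agilent arrays made double-stranded by primer extension were incubated with the protein at 200 nM in PBS (pH 7.5), then scanned and quantified. All ungapped 8-mers were scored from probe intensities, and each received an enrichment E-score from the Universal PBM Analysis Suite, averaged over duplicate arrays.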
row,Sequence,PBM E-score of 8-mer
1,TATAACAA,0.105 ± 0.024
2,ATTTCGTC,-0.0211 ± 0.029
3,CCCGAGGG,-0.341 ± 0.026
4,GTGAAGTA,0.2369 ± 0.00032
5,ATTGCACA,0.121 ± 0.053
6,CGCACGAC,0.133 ± 0.02
7,CGGGGAGC,-0.128 ± 0.016
8,GAGAAGTA,-0.0397 ± 0.029
9,CGTCACAG,0.232 ± 0.0032
10,ACGCACAC,0.267 ± 0.036
11,AGTGTGAT,0.4721 ± 0.0012
12,ATAAGCGA,-0.0998 ± 0.04
13,ATGCCCAA,-0.122 ± 0.1
14,ACGCGATC,0.188 ± 0.038
15,CGAGGACA,0.0382 ± 0.045
16,AGTCTGAT,-0.329 ± 0.021
17,GAGACACC,0.304 ± 0.0089
18,GGCTTCAC,0.142 ± 0.079
19,GCCGATGA,-0.124 ± 0.047
20,CATATAGA,-0.308 ± 0.047
21,ATCTGGTG,0.0206 ± 0.029
22,CTAAACGA,-0.0951 ± 0.053
23,CTTCTCGA,0.0756 ± 0.058
24,AAGTGTGT,0.331 ± 0.0059
25,GGAAAGGA,-0.245 ± 0.043

row,Sequence,PBM E-score of 8-mer
1,GACCTAAC,0.00654 ± 0.0056
2,AACGCCGG,-0.0149 ± 0.0048
3,CGTCTATA,-0.0259 ± 0.048
4,ACAGTAGT,0.134 ± 0.026
5,GCGTAGAA,-0.19 ± 0.041
6,CACGACCC,-0.0721 ± 0.023
7,ACTGTGTG,0.259 ± 0.0026
8,AACCTAGT,-0.16 ± 0.015
9,ATTTTTAC,-0.0791 ± 0.0015
10,ATGTTGTA,-0.0316 ± 0.062
11,AGCTGCTG,-0.04 ± 0.048
12,CCGTCAGA,-0.155 ± 0.046
13,CCGCCGGC,-0.0836 ± 0.039
14,CTTTCCCC,-0.0358 ± 0.012
15,ACTGAAAC,-0.0367 ± 0.048
16,ACACAAAA,0.146 ± 0.047
17,AATGCGCG,0.0921 ± 0.011
18,GTGGTAGA,0.0762 ± 0.0054
19,CTCGCGCA,0.248 ± 0.021
20,ACACGCCT,0.283 ± 0.016
21,ATCTGCTA,0.0331 ± 0.0079
22,ACGTTGAC,0.325 ± 0.057
23,CAAGGCGG,-0.0373 ± 0.013
24,AGAAGCTA,-0.0972 ± 0.041
25,ATACCCAA,-0.32 ± 0.07

row,Sequence,PBM E-score of 8-mer
1,AATGGCAC,0.209 ± 0.032
2,GTCCCCAA,0.0238 ± 0.011
3,GCAGGTAA,-0.0374 ± 0.063
4,CCGTCGAC,0.112 ± 0.032
5,GCTGATAC,-0.0434 ± 0.0089
6,CCCCAGGA,-0.118 ± 0.0089
7,AATGACCG,-0.0301 ± 0.079
8,ACCGGTGG,-0.0227 ± 0.038
9,CCACAGAC,-0.083 ± 0.056
10,GGACTCAC,-0.124 ± 0.0017
11,CGACCCCC,-0.11 ± 0.0058
12,GAGGTCAC,0.205 ± 0.0031
13,ACGAAAGC,-0.0903 ± 0.043
14,ATGAACCG,0.0284 ± 0.03
15,ACCTTAAG,0.109 ± 0.0011
16,CCCCGAAA,-0.122 ± 0.064
17,AATCGTCG,0.0682 ± 0.095
18,TAATCACA,0.195 ± 0.056
19,CTAGCGTC,-0.00139 ± 0.029
20,ACTGTATA,-0.0709 ± 0.035
21,AGTGATCG,0.155 ± 0.00032
22,ATGAACGG,-0.162 ± 0.022
23,CAAAGAAC,-0.00702 ± 0.007
24,ACCTCAAC,-0.0458 ± 0.091
25,CCATCAGA,-0.152 ± 0.041

row,Sequence,PBM E-score of 8-mer
1,GTATAGAA,-0.051 ± 0.037
2,AGGATCAC,-0.0644 ± 0.0047
3,CCCTCAAG,0.0833 ± 0.0098
4,CTGACGTA,0.00893 ± 0.00035
5,CTCGGTGA,0.0792 ± 0.037
6,GAGAGATA,-0.094725 ± 7.8e-05
7,CCTACAAG,-0.162 ± 0.023
8,ATGATAGA,-0.242 ± 0.0043
9,CGACTCTA,0.0596 ± 0.075
10,CCCTGACC,-0.2 ± 0.05
11,CACCACAG,0.0791 ± 0.052
12,ACCAAACA,0.177 ± 0.0058
13,ACAGCCCC,-0.091 ± 0.047
14,GCGCAGAC,0.197 ± 0.026
15,CTCCCGAC,0.0714 ± 0.0088
16,AAGGCTTC,-0.242 ± 0.0041
17,ACGCGATG,0.125 ± 0.0073
18,CCAGAAGA,-0.196 ± 0.043
19,CCTTTCAA,-0.311 ± 0.027
20,CGGTTCAG,-0.07241 ± 0.00023
21,CAGAAATG,-0.202 ± 0.012
22,GGGTGAGA,0.424 ± 0.0073
23,AACGAGCG,0.0213 ± 0.0072
24,AAGTCGCG,0.234 ± 0.0035
25,ATTCTGCG,-0.00673 ± 0.004

row,Sequence,PBM E-score of 8-mer
1,AATCTGGC,-0.144 ± 0.055
2,GATGCTCA,0.0265 ± 0.016
3,GGACAGTA,-0.134 ± 0.037
4,CACCTGAA,0.29 ± 0.0089
5,CTGCTTTA,0.0222 ± 0.037
6,TCGGTTCA,-0.122 ± 0.0079
7,CACCTATC,0.358 ± 0.012
8,CTACCGGA,-0.152 ± 0.039
9,TAAAATAA,-0.0967 ± 0.032
10,CGGACTTC,-0.0705 ± 0.0044
11,GCTCGACC,-0.0869 ± 0.032
12,ACAGTAAT,0.228 ± 0.03
13,CTGGTGCC,0.141 ± 0.076
14,ATACCATA,-0.0336 ± 0.003
15,CGTTGAGC,-0.16 ± 0.043
16,ACGCCCGT,0.0933 ± 0.011
17,TGGACGAA,-0.00239 ± 0.0088
18,AAATAACT,-0.101 ± 0.03
19,CATTAAGG,-0.146 ± 0.013
20,CGACACCG,0.257 ± 0.037
21,AGCTATGG,-0.223 ± 0.035
22,ACGGCGAA,0.000705 ± 0.055
23,ATCTGTAC,-0.0193 ± 0.045
24,CATGAAAC,-0.146 ± 0.031
25,TACGTCCA,-0.0945 ± 0.018

row,Sequence,PBM E-score of 8-mer
1,CCCTGGTA,-0.0536 ± 0.066
2,GTCGACGA,0.171 ± 0.063
3,CAACCTAA,-0.0131 ± 0.11
4,GAAAGGCA,0.00213 ± 0.013
5,GGAGTGGA,-0.03 ± 0.12
6,GATCGACC,-0.0795 ± 0.055
7,ACCCGACC,-0.126 ± 0.01
8,TAGGGCAA,-0.321 ± 0.024
9,CAGTCATA,-0.132 ± 0.016
10,CCGCTTGA,-0.0306 ± 0.035
11,AACAGGCG,0.135 ± 0.075
12,GCGTGGCA,0.136 ± 0.016
13,ATAATGTA,-0.303 ± 0.025
14,CAGTGTTA,0.31 ± 0.028
15,CAGCTATG,0.0757 ± 0.064
16,CATGGACA,-0.00426 ± 0.0041
17,CATGTCCA,-0.269 ± 0.052
18,GTCGCGCA,0.219 ± 0.027
19,CTACCCAA,-0.174 ± 0.042
20,CTACAAAG,-0.129 ± 0.029
21,AGTGACAG,0.3301 ± 0.0022
22,GATCAGAA,-0.177 ± 0.034
23,CATTCAGC,-0.185 ± 0.052
24,AAGGGCAA,-0.154 ± 0.066
25,ATACCCCG,-0.108 ± 0.072

row,Sequence,PBM E-score of 8-mer
1,ACAGCGTA,-0.0419 ± 0.011
2,GAAGGACA,-0.112 ± 0.03
3,ACTCTACG,0.0339 ± 0.099
4,GGCCTGAA,-0.0727 ± 0.012
5,GGAAACCA,-0.125 ± 0.01
6,CAATCAAC,0.0141 ± 0.025
7,ACTTGTCG,0.308 ± 0.031
8,AGTTTCTC,0.06 ± 0.046
9,AAATGTAA,0.0931 ± 0.041
10,ACCATTTC,-0.0127 ± 0.03
11,CCCGTAAG,-0.129 ± 0.07
12,AACCCATC,-0.169 ± 0.053
13,ATGGACAT,-0.213 ± 0.018
14,CCTCTTTA,-0.14 ± 0.026
15,GTAGTGTA,-0.0121 ± 0.013
16,ATTATTGG,-0.12 ± 0.033
17,GCTAAAGC,-0.00702 ± 0.053
18,CCTAGATC,-0.0537 ± 0.0026
19,ACTCTGCA,-0.014 ± 0.021
20,GCGAGCCA,0.0215 ± 0.041
21,CAGATCGG,-0.115 ± 0.015
22,CGTACAGC,-0.0716 ± 0.023
23,ATCACCTG,0.304 ± 0.022
24,GACCCAAA,-0.18 ± 0.054
25,TAAGTGAA,-0.0758 ± 0.051

row,Sequence,PBM E-score of 8-mer
1,GGCAAGAC,0.0122 ± 0.011
2,CGCCACCC,0.237 ± 0.046
3,GTTATTCA,-0.0759 ± 0.052
4,ATGCACTA,-0.168 ± 0.035
5,GCCCTCCC,-0.274 ± 0.044
6,AGCGATAT,0.11 ± 0.017
7,CAAAATAC,-0.206 ± 0.0041
8,CCAATTGA,-0.188 ± 0.042
9,CGGTATAA,-0.0109 ± 0.074
10,AACAGATT,0.0599 ± 0.037
11,AAGCCGTG,0.00206 ± 0.0093
12,CGGGTTTC,0.00543 ± 0.0079
13,AGGCCTAC,-0.0867 ± 0.044
14,ATATCCTG,-0.272 ± 0.034
15,CGGTTAAC,0.146 ± 0.035
16,CATCGTTA,0.0458 ± 0.0019
17,GACCTCAC,0.137 ± 0.049
18,TCCCAGCA,0.0137 ± 0.013
19,CATTGTGG,-0.178 ± 0.048
20,ATTCATTA,-0.0182 ± 0.06
21,AAAACGCC,0.113 ± 0.023
22,GAGGGCCA,-0.232 ± 0.072
23,CTGTTGCA,0.0393 ± 0.061
24,AGACTGGC,0.00567 ± 0.0024
25,ACCTCTTC,-0.0239 ± 0.026

row,Sequence,PBM E-score of 8-mer
1,GCTATCTA,-0.0579 ± 0.033
2,GGCTTACC,-0.0755 ± 0.061
3,AAAACACT,0.205 ± 0.1
4,CTTCACTC,0.115 ± 0.059
5,CGTTAAGC,0.0779 ± 0.00084
6,AGGCCCTC,-0.375 ± 0.068
7,AACGAGAT,-0.132 ± 0.043
8,CCAAGTAC,-0.0466 ± 0.056
9,AGAACGTC,-0.086 ± 0.067
10,GATTCTCA,0.106 ± 0.068
11,ACCTGCGC,0.0909 ± 0.023
12,AGGGACGC,-0.089 ± 0.12
13,AGGCATCG,-0.23 ± 0.05
14,GAACGTAA,-0.0925 ± 0.029
15,CCCTAACA,0.17 ± 0.033
16,AAGCTGTC,0.223 ± 0.066
17,GAGTCTGC,-0.138 ± 0.081
18,CAGCCTTC,0.0325 ± 0.001
19,GTACTGGA,-0.256 ± 0.056
